From PubChem BioAssay AID1345082 (National Center for Advancing Translational Sciences (NCATS), 2018)
The whole screen tested about 94,000 compounds, of which about 4,000 (4.3%) were called active. The shares of active, inactive and inconclusive entries below differ from those in the screen. The call rests on the fitted dose curve; in most records, active means well fitted inhibition curve with a large enough effect; inconclusive means small, poorly fitted or top-dose-only effect; inactive means no such curve, though single readings can be large or run the other way. Potencies beside an inconclusive call are fits to weak or partial responses and may not hold up.
Potency means the concentration at half of the fitted maximal effect; tags describe the fitted curve by direction and shape.

Assay: Cytotoxic Profiling in NIH 3T3 Cell Line of Diverse Libraries Using Quantitative High-Throughput Screening; further: nearly all actives have a fitted effect of over 55% in size
Details: NIH 3T3 viability, CellTiter-Glo ATP luminescence, 48-72 h; series mostly up to 96.7 µM
Method in brief: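 Viability of NIH 3T3 cells after 48 or 72 hr compound treatment at 37 °C was assessed by CellTiter-Glo, with luminescence imaged following a 10 min room-temperature step.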
For `C[C@H]1[C@@H]2[C@H]3OC(=O)[C@@H](C)[C@@H]3CC[C@@]2(C)CC[C@@H]1NC(=O)c1ccccn1`, the Potency was “inactive”. For `COC[C@@H]1[C@H](NC(=O)COc2ccc(-n3cnnn3)cc2)[C@@H]2CCO[C@H]12`, the Potency was “inactive”. In the case of `O=C(NCCc1ccccc1)C1CCc2nnc(-c3cccc(C(F)(F)F)c3)n21` (stereo not given), the Potency was inconclusive: 79.4 µM [inhibitor, partial curve, poor fit]. For `O=C(NCCc1ccccc1)C1CCCN(Cc2cccc(-c3cccs3)c2)C1` (stereo not given), the Potency was inconclusive: 44.7 µM [inhibitor, partial curve, poor fit]. With `CC(=O)N1CCN(C(=O)C[C@@H]2CCNC[C@@H]2Cc2cc(CN3CCOCC3)on2)CC1` the Potency was “inactive”. In the case of `Cc1ccc(CN2C(=O)COC[C@H]2C(=O)Nc2cccc(C)c2)cc1`, the Potency was “inactive”. In the case of `C[C@@H](NC(=O)C[C@@H]1c2nc(NC(=O)CC(C)(C)C)sc2C[C@@H]2[C@](C)(CO)[C@H](O)CC[C@]21C)c1ccccc1`, the Potency was inconclusive: 79.4 µM [inhibitor, partial curve]. With `O=C(CN1C(=O)NC(c2ccc(Cl)cc2)C2=C1COC2=O)Nc1ccc(Br)cc1F` (stereo not given) the Potency was active: 28.2 µM. With `CCN1c2cc(C(=O)Nc3ccc(F)c(Cl)c3)ccc2C(=O)N2CCCCCC21` (stereo not given) the Potency was active: 31.6 µM. With `COc1ccc(F)cc1-c1cccc(C(=O)NCCNC(=O)c2ccccc2F)c1` the Potency was inconclusive: 50.1 µM [inhibitor, partial curve, poor fit]. With `O=C(NC1CCCN(c2cc(-c3ccc(F)cc3)[nH]n2)C1)c1c[nH]c2ccccc12` (stereo not given) the Potency was inconclusive: 44.7 µM [inhibitor, partial curve, poor fit]. In the case of `Cc1ccc(NC(=O)c2cc3c(N4CCSCC4)nc(C)cn3n2)c(C)c1`, the Potency was “inactive”. In the case of `O=C(NCc1ccccc1C(F)(F)F)c1cc2n(n1)CC(c1ccc3c(c1)OCO3)OC2` (stereo not given), the Potency was inconclusive: 44.7 µM [inhibitor, partial curve, poor fit]. In the case of `C[C@@H](NC(=O)Cc1ccccc1)c1c(-c2ccc(Cl)cc2)noc1C(=O)O`, the Potency was inconclusive: 112 µM [inhibitor, partial curve, poor fit]. For `CC1=C[C@@H](CNC(=O)Nc2ccc(F)cc2)[C@H](C(C)C)C[C@H]1Cc1nc2c(C)cccc2[nH]1`, the Potency was active: 39.8 µM. For `Cn1ccc2c(C(=O)NCC3CCC(=O)N3)nc(-c3ccccc3)cc21` (stereo not given), the Potency was active: 50.1 µM. For `COc1cccc(-c2ccc(CN3CCCC3C(=O)NC3CCCCC3)cc2)c1` (stereo not given), the Potency was inconclusive: 39.8 µM [inhibitor, partial curve, poor fit]. In the case of `COc1cccc(-c2cccc(C(=O)N3CCCC3C(=O)NCc3ccc(F)cc3)c2)c1` (stereo not given), the Potency was inconclusive: 44.7 µM [inhibitor, partial curve, poor fit]. In the case of `COc1cccc(-c2ccc(CN3CCCC(N[S+](=O)([O-])c4ccc(C)cc4)C3)cc2)c1` (stereo not given), the Potency was inconclusive: 17.8 µM [inhibitor, full curve, poor fit]. With `O=C(NCC1CC1)c1noc(-c2ccccc2F)n1` the Potency was “inactive”. For `Cn1c(CNC(=O)c2cccc(C3CCNC3)c2)nc2ccccc21` (stereo not given), the Potency was inconclusive: 89.1 µM [inhibitor, single point]. In the case of `COc1ccc2nc(C[C@@H]3C[C@@H](C(C)C)[C@H](CNCc4ccccc4OC)C=C3C)[nH]c2c1`, the Potency was active: 28.2 µM. With `O[C@H]1[C@H](NCc2ccccn2)[C@H]2CO[C@H](O2)[C@@H]1N1CCC(Cc2ccccc2)CC1` the Potency was inconclusive: 126 µM [inhibitor, single point]. In the case of `Cn1ncc2c(C(=O)Nc3cncnc3)cc(-c3ccc(Cl)cc3Cl)nc21`, the Potency was “inactive”. For `O=C(NC1CCN(c2cc(-c3ccc(F)cc3)[nH]n2)C1)c1ccc2[nH]ccc2c1` (stereo not given), the Potency was inconclusive: 50.1 µM [inhibitor, partial curve, poor fit]. In the case of `Cc1ccccc1N1CCN(c2ncccc2CNC(C)Cn2cncn2)CC1` (stereo not given), the Potency was “inactive”. In the case of `O=C(NCc1ccc(F)cc1)c1cc(-c2cccs2)c2cccn2n1`, the Potency was inconclusive: 28.2 µM [inhibitor, partial curve]. With `CCN(Cc1ccncc1)C(=O)CC1C(=O)NCCN1CCc1ccccc1` (stereo not given) the Potency was “inactive”. In the case of `CC1(c2ccccc2)N(Cc2ccc(O)cc2)C(=O)OC12CCN(C(=O)c1cnccn1)CC2` (stereo not given), the Potency was active: 31.6 µM. In the case of `O=C(c1cc(-c2ccc(F)cc2)nc2ccccc12)N1CCC(Cc2nncn2CC2CC2)CC1`, the Potency was inconclusive: 44.7 µM [inhibitor, partial curve, poor fit]. For `Cc1nnc2ccc(N3CCN(S(=O)(=O)c4cccc(C(F)(F)F)c4)CC3)nn12`, the Potency was inconclusive: 25.1 µM [inhibitor, partial curve, poor fit]. For `CNC(=O)CCn1ncc2cc(OCc3ccccc3-c3ccccc3COC)ccc21`, the Potency was inconclusive: 89.1 µM [inhibitor, partial curve]. In the case of `Cn1ncc2c(C(=O)NCCc3ccccn3)cc(-c3ccc(F)cc3)nc21`, the Potency was inconclusive: 50.1 µM [inhibitor, partial curve, poor fit]. In the case of `CCn1ncc(N2CCCC(CC(=O)N3CCCCCC3)C2)cc1=O` (stereo not given), the Potency was “inactive”. For `Cc1oc(C(O)c2ccccc2)nc1C(=O)N1CCC(n2c(=O)[nH]c3ccccc32)CC1` (stereo not given), the Potency was inconclusive: 56.2 µM [inhibitor, partial curve, poor fit]. With `COc1ccc(CC(=O)N2CCCN(c3cc(-c4ccccc4)[nH]n3)CC2)cc1OC` the Potency was “inactive”. For `O=C(COc1ccccc1)N1C[C@@H]2C[C@H](C1)c1c(NS(=O)(=O)c3ccccc3)ccc(=O)n1C2`, the Potency was “inactive”. In the case of `Cc1ccc(C(=O)N2CCCN(Cc3ccncc3)C(c3ccccc3)CC(=O)NCC2)s1` (stereo not given), the Potency was inconclusive: 50.1 µM [inhibitor, single point]. In the case of `CN1C[C@@H](NC(=O)c2cccs2)C[C@H]1c1nc(-c2ccc(F)cc2)no1`, the Potency was inconclusive: 89.1 µM [inhibitor, partial curve, poor fit]. In the case of `CCC(c1cccs1)N1C(=O)[C@H]2CN(S(=O)(=O)c3cccc(OC)c3)C[C@H]2C1=O` (stereo not given in full), the Potency was inconclusive: 70.8 µM [inhibitor, single point].
